Laboratory results from the supplement of paper PMC10126150.
Values marked as one replicate rest on one cluster of the flow cell; about a third of the high ones do not repeat.

System: ATP
Assay: switch fluorescence ratio, 500 uM ATP over buffer (Cy3 cluster intensity, sum of 5 cycles each) (fold (ratio)); higher = stronger signal-on switching upon ATP binding; sequences stand for … in TCGTCGGCAGCGTCAGATGTGTATAAGAGACAGTTTTTTTTTTTTTTTTTTTTTTTTT…TC
Details: aptamer strand: ATP DNA aptamer (quencher-CACCTGGGGGAGTATTGCGGAGGAAGG + anchor), 100 nM annealed; ATP concentration: 500 uM; one replicate
Summary of the method: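 Exposure to 500 uM ATP lasted 15 min at 22 °C before imaging, and a selection-buffer image was taken beforehand, for Cy3-labelled switching-strand clusters on a modified Illumina MiSeq flow-cell annealed to 100 nM quencher-labelled ATP aptamer. Five buffer/ATP cycles were run with NaOH stripping and re-annealing between them. The fluorescence ratio per cluster is summed target-cycle over summed buffer-cycle Cy3 intensity, averaged per switch-domain sequence. Clusters outside 100-1000 RFU were excluded.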

| Sequence | switch fluorescence ratio |
| --- | --- |
| GTTAGCCGGG | 0.996 |
| ACCGGGGCCT | 1 |
| CGCTTGTTTG | 0.95 |
| GTGGCACATC | 1.01 |
| AGTGTGTTCA | 1.01 |
| GAGATGGGAC | 0.983 |
| TTCGGTAGAT | 0.94 |
| ACGCGAGCAG | 1.03 |
| GGGTCCGCCT | 0.999 |
| AAGCTTTGGT | 0.98 |
| AGAGCGTGTT | 0.975 |
| AAAGTGAAGT | 0.94 |
| TCTGGCACCC | 1.03 |
| TTAGAGATGG | 0.981 |
| GAGTACTAAT | 0.998 |
| CGGTGGTTTT | 0.996 |
| AATATAGGCA | 0.943 |
| CAGATTTCAC | 0.996 |
| GCGTGCATAT | 0.99 |
| GGTGTAGTAA | 1.03 |
| TTATACCTTG | 0.995 |
| ACTGCCTGGT | 1.03 |
| TTTCTAGGCT | 1 |
| CATGATTACA | 1.02 |
| AAGGTAGGAC | 0.992 |
| AGGGTCGTAT | 0.996 |

| Sequence | switch fluorescence ratio |
| --- | --- |
| GGCCATACCG | 1 |
| AACGTATCCT | 1.07 |
| AGTTGCCCG | 0.999 |
| GCTGGGCGTG | 1 |
| ACATCGGGGA | 1.07 |
| CCAAGCCTG | 0.99 |
| GAGCATGATA | 1.03 |
| CGATATACAC | 1.16 |
| GAAAACTGT | 0.983 |
| CAACAATTCT | 1.12 |
| GTGTTCATGA | 0.955 |
| CTCTCCTAGT | 1.1 |
| CAGGAGTTCG | 0.989 |
| GCGAGTTTCC | 1.03 |
| CTGGGCTGC | 1.04 |
| ATGTATGGG | 1.01 |
| GGGGCCAGTG | 0.972 |
| GCTCGAGATA | 1.08 |
| AATGTTTCCG | 0.995 |
| ATGTGAAGGT | 1.04 |
| TCATGCCTGT | 0.974 |
| GAGAGCTTTT | 0.994 |
| TCATCCACAG | 1.64 |
| AGAACCAAGT | 1.03 |
| GCGTTTGT | 0.976 |
| GCTATTAGGT | 1.02 |

| Sequence | switch fluorescence ratio |
| --- | --- |
| TTGCACTTAC | 1.85 |
| CACGACATCG | 1.03 |
| GTTTCATTGT | 0.958 |
| GCACGCACCA | 1.44 |
| TCATAAGCGA | 1.24 |
| AAACTGTAGC | 1.16 |
| TTGGGGTCAT | 1.02 |
| TAATCAAGTG | 0.994 |
| GCAAGACTGT | 2.74 |
| CGTTCTCGTG | 1.03 |
| CATTGATCTT | 1.03 |
| ATACTAGGAA | 1.02 |
| AAAGTGAATC | 0.989 |
| TACGAGAGCG | 1.04 |
| CTCAACGAAC | 1.3 |
| TATAGGGATA | 0.979 |
| ACCCAATCG | 1.09 |
| AAACGATTGG | 0.992 |
| GCACACGTTT | 1.01 |
| AGGGTGAAGC | 1.09 |
| TGAATGCCGC | 0.982 |
| CCCTATGGAG | 0.995 |
| TTCTAGCTCT | 1.07 |
| CACGATATTT | 1.07 |
| ATCATAAAAC | 1 |
| GATGCTGTGA | 0.973 |

| Sequence | switch fluorescence ratio |
| --- | --- |
| TGTAGCTGCG | 0.963 |
| AATCGCACAC | 2.14 |
| TGAGAAAACG | 0.966 |
| AGAACAAATA | 1.01 |
| AAAAATGATG | 1 |
| CAATCACT | 0.999 |
| TCTCGCTCTA | 1.12 |
| CCAACTCGAA | 1.07 |
| TGACCCGGGA | 1 |
| GCAGACGCGC | 1.05 |
| CTTGGATAAT | 1 |
| AACCGTCATT | 1.07 |
| AACTTACGTT | 1.31 |
| AATGTTCGCA | 0.991 |
| TGAAATGTCG | 0.932 |
| TCTGAGGAGT | 1.03 |
| CCACTGGCTG | 1.08 |
| CATAACCCAG | 1.05 |
| TAATCCCAAA | 0.999 |
| TATGTTGAAA | 0.984 |
| GCACGCAGAT | 1.15 |
| AGAGAGTAGT | 0.971 |
| AGTTGTAGGA | 0.959 |
| AGGAGTCCAT | 0.99 |
| GGGGCACGTT | 1.03 |
| CTACGGTTAA | 1.08 |

| Sequence | switch fluorescence ratio |
| --- | --- |
| GTCTCTTGGA | 0.951 |
| GTTCATAGTT | 0.978 |
| CCAAATGATG | 0.974 |
| TTAGTGCGGG | 0.971 |
| TAATGCAG | 0.978 |
| GCTAGAGG | 0.981 |
| GGTCGTTTA | 0.98 |
| CGACAATCTT | 1.03 |
| GTTCGAAACG | 1.07 |
| TTCTAGTGGT | 0.964 |
| TTCTTGTACG | 0.992 |
| GCGGCGGCGA | 1 |
| TCTGGCTTTC | 1.16 |
| GGGCGATTTT | 1.08 |
| TGAGCTTGCG | 1.04 |
| TCACGGTCCG | 1.06 |
| GCCGTGGGTG | 1.04 |
| TATATTTATA | 1.01 |
| CATTGTCAAC | 0.97 |
| TTGAGAGTCC | 0.96 |
| CACGCCAACT | 1.37 |
| GCTAACGTGT | 0.985 |
| TTCATTGAGC | 0.98 |
| CAGCACACGG | 1.13 |
| ACATGGTCGT | 1.02 |
| TAACTCACCT | 1.28 |

| Sequence | switch fluorescence ratio |
| --- | --- |
| GCCCGCGG | 1.01 |
| CGTGCCGGCC | 0.972 |
| TGTTCCTGCC | 1.49 |
| TCCGCAGGCA | 1 |
| TGCTAAGCGG | 0.977 |
| GAAACTGTAG | 1.05 |
| TACATGCGAC | 1.17 |
| GGTGTCCCTT | 1.04 |
| ATTCCGATAC | 4.44 |
| TGAGTGGCGC | 1.12 |
| GTGTTGACGG | 0.969 |
| GTACTTGCGT | 0.955 |
| AGAGAAGAGC | 0.964 |
| TAGTAGTTTG | 0.999 |
| TTTAAACGTG | 1.02 |
| TAATAGTGAA | 1.07 |
| GCCGTTGTTT | 0.999 |
| CGTGCTTGTC | 0.933 |
| TTGGCAAAAG | 1.17 |
| TTTTGCTCTT | 0.979 |
| AGGGTGTCAG | 1.08 |
| TAAGTTGAAC | 0.993 |
| ACTCGAGGCG | 0.976 |
| AAAGTCCTCG | 0.943 |
| ATAGTCGAAG | 1 |
| TGTACACAC | 1.39 |

| Sequence | switch fluorescence ratio |
| --- | --- |
| TACGTAGAAA | 1.15 |
| TGTAATGTAG | 1 |
| CGAAATAT | 4.27 |
| CCCGAGCTA | 2.95 |
| TTGAGGATAC | 1.28 |
| GTGATTTAGG | 0.998 |
| TGTTAGGGC | 1.01 |
| TATGTAAGT | 0.955 |
| TTAGTGCAGA | 1.02 |
| TGCTTGGAGA | 1.02 |
| ATTGGTTAAT | 0.938 |
| ATCATTTCCG | 0.994 |
| AAGCCCGTTG | 0.951 |
| AGTGACCGGA | 0.977 |
| TTTCTGGCC | 1.1 |
| TGCTTGAGCG | 0.997 |
| AACGATTTCA | 0.952 |
| CCTTCATCTA | 1.02 |
| GAATAAAGCT | 1.12 |
| CCTCGATCGT | 1.03 |
| CATCTATGTA | 0.996 |
| GGAACATGCT | 0.947 |
| TCAAGGCCGT | 0.929 |
| GTAACTCTCG | 1.01 |
| CGCCTCAATG | 1.53 |
| GCAAAGATTT | 0.984 |

| Sequence | switch fluorescence ratio |
| --- | --- |
| GCGCGCCTGG | 1 |
| CTATGGTCTA | 1.02 |
| TGTAGTATAT | 1.23 |
| TATTGACCGA | 1.06 |
| AAAGTCGGAC | 1 |
| TGCTGGTGCT | 0.959 |
| GTCTCCCAAA | 1.48 |
| TGAACTATAT | 0.992 |
| ATGTTACGTA | 1.05 |
| CTCAAGTAGG | 1.02 |
| CGGTGATGGT | 1.06 |
| TCTCGACCAG | 1.1 |
| AAGAGGGGA | 0.986 |
| ATCATGTATT | 1.01 |
| AAAGCGAGGA | 1.11 |
| TGATCCGATA | 1.01 |
| TGGGAGGTAG | 0.953 |
| ATATATATGA | 0.959 |
| AAGAACAGGT | 1.05 |
